In PubChem BioAssay AID1030 (National Center for Advancing Translational Sciences (NCATS), 2008):
About 16,000 (7.3%) of roughly 220,000 compounds were called active. Inconclusive results, whose numbers are uncertain, are shown with a selection of clear calls. The call rests on the fitted dose curve; in most records, active means well fitted inhibition curve with a large enough effect (not every such curve was filed as active); inconclusive means small, poorly fitted or top-dose-only effect, or another doubt; inactive means no such curve, though single readings can be large or run the other way. No potency is given beside an inconclusive call; the fits are too rough.

Biological target: Aldehyde dehydrogenase 1A1 (Homo sapiens) (UniProt P00352)
Sequence of UniProt P00352 (P00352 whole entry, looked up): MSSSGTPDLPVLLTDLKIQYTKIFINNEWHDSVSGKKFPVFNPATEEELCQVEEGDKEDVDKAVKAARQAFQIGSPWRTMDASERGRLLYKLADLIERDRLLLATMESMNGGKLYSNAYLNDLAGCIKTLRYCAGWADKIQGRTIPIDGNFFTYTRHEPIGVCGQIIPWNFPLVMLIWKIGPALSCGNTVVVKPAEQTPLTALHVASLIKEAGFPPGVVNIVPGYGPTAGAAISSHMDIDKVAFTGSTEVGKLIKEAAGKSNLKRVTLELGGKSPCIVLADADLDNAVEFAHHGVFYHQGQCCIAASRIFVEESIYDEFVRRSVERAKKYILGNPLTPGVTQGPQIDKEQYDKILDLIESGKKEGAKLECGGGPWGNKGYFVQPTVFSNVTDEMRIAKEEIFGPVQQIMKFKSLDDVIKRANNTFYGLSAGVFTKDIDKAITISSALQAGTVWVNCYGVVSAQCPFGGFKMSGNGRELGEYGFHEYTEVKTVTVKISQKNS
Assay: qHTS Assay for Inhibitors of Aldehyde Dehydrogenase 1 (ALDH1A1);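 on activity, negative = inhibition: plate controls were no enzyme wells and a reference inhibitor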
Conditions: Purified ALDH1A1, NADH fluorescence, propionaldehyde substrate; series mostly up to 75.3 µM
Potency means the concentration at half of the fitted maximal effect; tags describe the fitted curve by direction and shape.

Question: `CCC(=O)/C=C1/Sc2ccccc2N1CC` was tested. Which Potency did it give?
Answer: Its Potency is active: 3.55 µM.

Question: With `COC(=O)c1ccc2c(=O)n(CCCN3CCOCC3)c(=S)[nH]c2c1` as the compound, how does the Potency read?
Answer: The Potency was inconclusive [inhibitor, partial curve].

Question: With `COc1ccc(/C=N/NC(=O)c2cc(Br)ccc2O)cc1Cn1cc(Cl)cn1` as the compound, how does the Potency read?
Answer: Its Potency is inconclusive [inhibitor, single point].

Question: `CN1CCN(C(c2cccc(Cl)c2)c2ccccc2Cl)CC1` (stereo not drawn) was tested. Which Potency did it give?
Answer: The Potency was inconclusive [inhibitor, single point].

Question: Which Potency does the source give for `Cc1ccccc1CSc1nc(-c2ccccc2)cc(=O)[nH]1` here?
Answer: The Potency was “inactive”.

Question: Which Potency does the source give for `CCc1ccc(C2CC(=O)NC(SCC(=O)OC(C)C)=C2C#N)cc1` (stereo not drawn) here?
Answer: Its Potency is “inactive”.

Question: For `CCS(=O)(=O)c1ccc(O)c(NC(=O)COc2ccc(C)cc2)c1`, which Potency is on record?
Answer: The Potency was inconclusive [inhibitor, single point].

Question: Which Potency does the source give for `Cc1cc(C)cc(Nc2cnn(C34CC5CC(CC(CC(=O)O)(C5)C3)C4)c(=O)c2Cl)c1` here?
Answer: Its Potency is inconclusive [inhibitor, single point].

Question: How did the Potency turn out when `Cc1ccc(CSc2nnc(-c3ccncc3)n2CC2CCCO2)cc1` (stereo not drawn) was run?
Answer: Its Potency is “inactive”.

Question: `Cc1cc(C(=O)OCC(=O)c2ccc3c(c2)OCCO3)c(C)o1` was tested. Which Potency did it give?
Answer: The Potency was inconclusive [inhibitor, single point].

Question: With `O=C1[C@@H]2[C@@H]3C[C@@H]([C@H]4ON=C(c5ccc(Cl)cc5)[C@@H]34)[C@@H]2C(=O)N1C1CCCCC1` as the compound, how does the Potency read?
Answer: Its Potency is “inactive”.

Question: With `COC(=O)c1c(C)oc2c1cc(NS(=O)(=O)c1cccs1)c1ccccc12` as the compound, how does the Potency read?
Answer: The Potency was active: 7.94 µM.

Question: With `CC1(C)Cc2ccccc2-c2nc3n(c(=O)c21)CCCS3` as the compound, how does the Potency read?
Answer: Its Potency is inconclusive [inhibitor, single point].

Question: With `NC(=O)c1c(NC(=S)Nc2ccccc2)sc2c1CCCC2` as the compound, how does the Potency read?
Answer: The Potency was active: 7.94 µM.

Question: With `O=C(Oc1ccc2c3c(c(=O)oc2c1)CCCC3)c1cccs1` as the compound, how does the Potency read?
Answer: The Potency was inconclusive [inhibitor, partial curve].

Question: For `COc1ccc(-c2cc3c(=O)n(CC(=O)NC4CCN(Cc5ccccc5)CC4)ncn3n2)cc1`, which Potency is on record?
Answer: Its Potency is “inactive”.

Question: How did the Potency turn out when `COc1ccc(Cn2cccc(NC(=O)Nc3ccc(F)cc3)c2=O)cc1` was run?
Answer: Its Potency is inconclusive [inhibitor, single point].

Question: With `COC(=O)c1ccc(C)c(N(CCO)CCO)c1` as the compound, how does the Potency read?
Answer: Its Potency is inconclusive [inhibitor, single point].

Question: How did the Potency turn out when `Nc1nc(SCC(=O)Nc2ccc3c(c2)OCO3)n[nH]1` was run?
Answer: Its Potency is “inactive”.

Question: Which Potency does the source give for `Cc1ccccc1NC(=S)Nc1ccc2cn[nH]c2c1` here?
Answer: Its Potency is inconclusive [inhibitor, single point].

Question: `CCN1/C(=C/C=C/C=C/c2sc3ccccc3[n+]2CC)Sc2ccccc21` was tested. Which Potency did it give?
Answer: Its Potency is inconclusive [inhibitor, partial curve].

Question: Which Potency does the source give for `COc1ccc(Oc2ccccc2C=O)cc1` here?
Answer: The Potency was inconclusive [inhibitor, single point].

Question: For `COc1ccc(C(C)=O)cc1CSC(=N)N`, which Potency is on record?
Answer: The Potency was inconclusive [inhibitor, single point].

Question: With `C/C(=C\C=C(C#N)C#N)c1cc(C#N)c(N)o1` as the compound, how does the Potency read?
Answer: The Potency was inconclusive [inhibitor, single point].

Question: `COc1ccc2ccccc2c1/C=C\C(=O)c1ccccc1` was tested. Which activity, negative = inhibition did it give?
Answer: Its activity, negative = inhibition is inactive: 1.08% [at 13.5 µM].

Question: Which Potency does the source give for `O=C1C(Cc2cccc([N+](=O)[O-])c2)S/C(=N/N=C/c2ccco2)N1c1ccccc1` (stereo not drawn) here?
Answer: Its Potency is inconclusive [inhibitor, partial curve].

Question: Which Potency does the source give for `O=C(Oc1cc2oc(=O)cc(-c3ccccc3)c2cc1Cl)C1CCCCC1` here?
Answer: Its Potency is inconclusive [inhibitor, partial curve].

Question: `O=C1CSC(=S)N1CC1CCCO1` (stereo not drawn) was tested. Which Potency did it give?
Answer: Its Potency is inconclusive [inhibitor, single point].

Question: `Cc1nonc1C1CCCN1Cc1nc(-c2ccc(F)cc2F)oc1C` (stereo not drawn) was tested. Which Potency did it give?
Answer: Its Potency is inconclusive [inhibitor, single point].

Question: With `O=C(CSc1nnnn1-c1cccc2c1CCCC2)N1CCCC1` as the compound, how does the Potency read?
Answer: Its Potency is active: 14.1 µM.

Question: How did the Potency turn out when `CCOC(=O)N1CCN(C(=O)c2cccn3c(=O)c4sccc4nc23)CC1` was run?
Answer: The Potency was inconclusive [inhibitor, partial curve].

Question: For `COc1cccc(-n2c(COc3ccc(C)cc3)nnc2SCC(=O)O)c1`, which Potency is on record?
Answer: The Potency was “inactive”.

Question: Which Potency does the source give for `Cc1ccc(-c2nnc(C)c(N3CCOCC3)n2)cc1` here?
Answer: The Potency was inconclusive [inhibitor, partial curve].

Question: Which Potency does the source give for `Cc1ccc[n+](CC(=O)c2cc3ccccc3oc2=O)c1` here?
Answer: Its Potency is inconclusive [inhibitor, partial curve].

Question: Which Potency does the source give for `O=C(CSc1nccc(=O)[nH]1)N1CCN(c2ccccc2)CC1` here?
Answer: The Potency was “inactive”.

Question: With `O=S(=O)(Nc1ccc2nc(C(F)(F)F)[nH]c2c1)c1ccccc1` as the compound, how does the Potency read?
Answer: The Potency was inconclusive [inhibitor, single point].

Question: For `Cc1cccc(CNc2ccnc(-c3ccccc3CN(C)C)n2)c1`, which Potency is on record?
Answer: The Potency was “inactive”.

Question: For `CC1(c2ccc3noc(-c4ccc(Cl)cc4)c3c2)OCCO1`, which Potency is on record?
Answer: Its Potency is inconclusive [inhibitor, single point].

Question: For `COc1ccc(CCNC(=O)NC2CCCCC2)cc1OC`, which Potency is on record?
Answer: Its Potency is “inactive”.

Question: With `COc1ccc(CN(CC(=O)NCc2ccccc2)C(=O)c2csnn2)cc1` as the compound, how does the Potency read?
Answer: Its Potency is inconclusive [inhibitor, single point].

Question: With `COc1ccccc1OCC(=O)NNC(=O)c1c(-c2ccccc2Cl)noc1C` as the compound, how does the Potency read?
Answer: The Potency was “inactive”.

Question: How did the Potency turn out when `CC(C)(NO)/C(=N/O)c1cccs1` was run?
Answer: Its Potency is inconclusive [inhibitor, single point].

Question: With `CN(C)c1ncc2ncc(=O)n(Cc3cccs3)c2n1` as the compound, how does the Potency read?
Answer: Its Potency is inconclusive [inhibitor, single point].

Question: Which Potency does the source give for `O=C1CCCN1CCCN1C(=O)N[C@@H](Cc2ccccc2)C1=O` here?
Answer: The Potency was “inactive”.

Question: Which Potency does the source give for `Cc1ccc(S(=O)(=O)c2cc3c(=O)n4cccc(C)c4nc3n(Cc3ccco3)c2=N)cc1C` here?
Answer: Its Potency is inconclusive [inhibitor, partial curve].

Question: How did the Potency turn out when `COc1cc([N+](=O)[O-])cc(CN2CCCCC2)c1O` was run?
Answer: Its Potency is “inactive”.

Question: `O=C1CSC(c2ccc([N+](=O)[O-])cc2)N1CCN1CCCCC1` (stereo not drawn) was tested. Which Potency did it give?
Answer: Its Potency is inconclusive [inhibitor, single point].

Question: `Cc1sc(NC(=O)C2CCCCC2C(=O)O)c(C(N)=O)c1-c1ccc(C(C)(C)C)cc1` (stereo not drawn) was tested. Which Potency did it give?
Answer: The Potency was inconclusive [inhibitor, single point].
